In all, about 120,000 compounds went through this assay and about 5,300 (4.4%) were called active. The inconclusive results got no clear call from the source; some entries with a clear call stand among them for comparison. The call rests on the fitted dose curve; in most records, active means well fitted inhibition curve with a large enough effect; inconclusive means small, poorly fitted or top-dose-only effect; inactive means no such curve, though single readings can be large or run the other way. Potencies of inconclusive entries are doubtful fits and often do not repeat.
Assay: qHTS Primary assay for Inhibitors of Plasmodium falciparum Dd2 growth in vitro; further: nearly all actives have a fitted effect of over 65% in size;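 on activity, negative = inhibition: plate controls were DMSO vehicle for no effect and reference drug for full effect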
Details: P. falciparum Dd2 growth, SYBR Green, 72 h; activity, negative = inhibition: at 28.9 µM (top of the series) unless noted; series mostly up to 28.9 µM
In short: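 Readout: SYBR Green fluorescence, 485 nm excitation, 535 nm emission, after ~16 h lysis at 37C. Before that, Dd2-infected red cells (2.5% hematocrit) grew 72 h with compound, 29 uM top final concentration.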
Potency means the concentration at half of the fitted maximal effect; tags describe the fitted curve by direction and shape.

SMILES | activity, negative = inhibition | outcome | Potency
O=C1NC(C(=O)NC2CCN(Cc3ccccc3)CC2)Cn2cccc21 (centres undefined) | inactive: -8.19% |  | 
Cc1cnc(-c2cccnc2)n1CC1CCN(C(=O)c2ccco2)CC1 | inactive: 0.836% |  | 
Cc1ccc(C)c(CN2CC[C@@H]3CN(S(C)(=O)=O)[C@@H]3C2)c1 |  | inactive | 
Cn1cc(CC(=O)N2CCCc3ncc(C(=O)N4CCN(Cc5ccccc5)CC4)cc32)c2ccccc21 |  |  | inconclusive: 12.6 µM [inhibitor, single point]
COc1ccccc1NC(=O)N1CCc2cc(OC)c(OC)cc2C1CNC(=O)C1CCCC1 (centres undefined) |  |  | inconclusive: 8.91 µM [inhibitor, partial curve, poor fit]
Cc1ccc(Cn2c(C3CCN(C(=O)COc4cccc(C)c4)CC3)n[nH]c2=O)cc1 |  |  | inconclusive: 17.8 µM [inhibitor, single point]
COc1cc2c(cc1OC)C(COc1ccc3c(C)cc(=O)oc3c1)N(C(=O)c1cccc(OC)c1OC)CC2 (centres undefined) |  |  | active: 8.91 µM
Cc1cc(C)cc(-c2ccc(C(=O)NCCCn3ccnc3C(C)C)cn2)c1 |  |  | inconclusive: 11.2 µM [inhibitor, single point]
c1ccc(CN2CCC[C@H]2c2nc(-c3ccnc(N4CCOCC4)c3)no2)nc1 |  |  | active: 7.08 µM
Fc1ccc2c(c1)nc1n2[C@@H](CNCc2cnc3ccccc3c2)COC1 |  | inactive [at 44.1 µM] | 
COCCN(CC1CCN(Cc2ccccc2F)CC1)C(=O)c1ccc(OC)cc1OC |  |  | inconclusive: 20 µM [inhibitor, single point]
Cc1ccc(C(=O)N2CCCCCCNC(=O)[C@@H]3C[C@@H](C(=O)N4CCc5ccccc5C4)C[C@@H]32)s1 |  |  | active: 7.94 µM
Cc1ccc(CN2CCSc3ccc(C(=O)Nc4cc(C)cc(C)c4)cc32)cc1 |  |  | inconclusive: 11.2 µM [inhibitor, single point]
CCOCCNc1ncnc2c1CN(C1CCNC1)C(=O)CN2C (centres undefined) | inconclusive: -190% [inhibitor] |  | 
COc1ccc(CNC(=O)[C@H]2O[C@H](CCN(C)CCc3ccccc3)CC[C@@H]2O)cc1 |  |  | inconclusive: 2.51 µM [inhibitor, partial curve, poor fit]
CN(Cc1ccccc1)Cc1cn([C@H]2CO[C@H]3[C@@H]2OC[C@@H]3NC(=O)NCc2ccccc2)nn1 | inactive: -13.1% |  | 
C[S+](=O)([O-])N1Cc2ccccc2CC2(CCCCN2Cc2ccncc2)C1 (centres undefined) |  |  | inconclusive: 20 µM [inhibitor, single point]
O=C(Cc1ccc(Cl)cc1)NC1CCN(c2cc(-c3cccs3)[nH]n2)C1 (centres undefined) |  |  | inconclusive: 3.98 µM [inhibitor, single point]
Cc1cc(C[C@@H]2COC[C@@H]2NC(=O)CCc2ccc(=O)[nH]n2)on1 |  |  | inconclusive: 0.282 µM [inhibitor, full curve, poor fit]
Cc1ccc(Cl)cc1NC(=O)CCCn1c(=O)c2cccn2c2ccccc21 |  |  | inconclusive: 8.91 µM [inhibitor, single point]
CCc1ccc(NC(=O)Cn2c(N3CCc4ccccc4C3)nc(C)cc2=O)cc1 |  |  | inconclusive: 5.01 µM [inhibitor, partial curve, poor fit]
CCOc1ccc(NC(=O)N2CCC(CN3CCCCCC3)CC2)cc1 |  |  | inconclusive: 20 µM [inhibitor, single point]

SMILES | activity, negative = inhibition | outcome | Potency
COCCN1C(=O)c2cccn2CC1CNC(=O)c1ccc(OC)c(OC)c1 (centres undefined) | inactive: 1.82% |  | 
COCCNC(=O)C[C@@H]1c2nc(NC(=O)c3ccco3)sc2C[C@@H]2[C@](C)(CO)[C@H](O)CC[C@]21C |  | inactive | 
COc1ccc(CN2CCc3nc(N4CCOCC4)[nH]c(=O)c3CC2)c(OC)c1OC |  | inactive [at 5.79 µM] | 
COCc1ccc(C(=O)NCC2COc3c(cccc3OC)C2)s1 (centres undefined) | inactive: -11.1% |  | 
COc1ccc(-c2cn(C)c(=O)n3cc(COc4ccc(Cl)cc4)nc23)cn1 |  |  | inconclusive: 1.12 µM [inhibitor, partial curve]
O=C(O)c1ccc(-c2nnc3ccc(NC(=O)C4CCC4)cn23)cc1 | inactive: -11.1% |  | 
CCc1ccc(NC(=O)CSc2nc3n[nH]c(C)c3c(=N)n2-c2ccc(C)cc2)cc1 |  |  | inconclusive: 0.794 µM [inhibitor, full curve, poor fit]
O=C(NCc1ccc(F)cc1)c1c2c(nc3ccccc13)C(=O)N(C1CCCCC1)C2 |  |  | inconclusive: 1.41 µM [inhibitor, full curve, poor fit]
Cc1cc(N2CCN(CC3(O)CNCCOC3)CC2)n2ncnc2n1 (centres undefined) | inactive: -1.34% |  | 
COc1ccc(O[C@H]2COCCN(Cc3cccc(OC)c3)C2)cc1 |  |  | inconclusive: 10 µM [inhibitor, partial curve, poor fit]
CN1CCCN(C(=O)CN2CCCc3nc(C4CC4)ncc3C2=O)CC1 | inactive: 16.4% |  | 
CCc1ccc(S(=O)(=O)N2CCN(C3CCN(CCC(C)C)C3=O)CC2)cc1 (centres undefined) |  |  | inconclusive: 6.31 µM [inhibitor, partial curve, poor fit]
COc1ccc(CCNC(=O)CCCn2c(=O)c3ccccc3n(CC(=O)Nc3cccc(C)c3)c2=O)cc1OC |  |  | active: 10 µM
CCOC(=O)c1c(NC(=O)c2ccc(S(=O)(=O)N3CCC(C)CC3)cc2)sc2c1CCN(C(C)C)C2 |  |  | inconclusive: 4.47 µM [inhibitor, partial curve, poor fit]
CCc1ccccc1Nc1nn2c(=O)c3ccc(C(=O)NC4CCC(C)CC4)cc3nc2s1 (centres undefined) |  |  | inconclusive: 11.2 µM [inhibitor, single point]
O=C(NCCc1ccc(Cl)cc1)C1CCc2nnc(C3CCN(C(=O)c4ccc(Cl)cc4Cl)CC3)n21 (centres undefined) | inconclusive: -36.3% [inhibitor] |  | 
CCc1cnc2c(c1SCc1c(F)cccc1Cl)c(=O)n(C)c(=O)n2C |  |  | inconclusive: 15.8 µM [inhibitor, single point]
COc1ccc(-n2ncc(C(=O)N3CCN(Cc4ccccc4)CC3)c2C2CCN(C(=O)OC(C)(C)C)CC2)cc1 |  |  | inconclusive: 11.2 µM [inhibitor, single point]
COc1ccc(NC(=O)Cn2c(-c3ccc(F)cc3)nc(C)c(CCO)c2=O)cc1Cl | inactive: -24.1% |  | 
CC(C)(C)C(=O)Nc1ccc(-c2nc3ccccc3s2)cc1 |  |  | inconclusive: 7.94 µM [inhibitor, partial curve]
Cc1ccc(NC(=O)C2CCc3ncc(-c4ccsc4)n3C2)cc1C (centres undefined) |  |  | inconclusive: 8.91 µM [inhibitor, single point]
CS(=O)(=O)N1CC2(CCN(Cc3cccc(C(N)=O)c3)CC2)Cc2ccccc21 |  |  | inconclusive: 12.6 µM [inhibitor, partial curve]

SMILES | activity, negative = inhibition | outcome | Potency
COc1cncc(Nc2cnc3ccc(-c4ccc(F)cc4)nn23)c1 |  |  | inconclusive: 0.631 µM [inhibitor, full curve, poor fit]
COc1cc(-c2nc3ccccn3c2Nc2ccccc2C)ccc1O |  |  | inconclusive: 10 µM [inhibitor, single point]
O=C(NC1CCCCC1)[C@@H]1C[C@@H](O)CN1C1CCN(C(=O)c2cc(F)ccc2F)CC1 |  |  | inconclusive: 17.8 µM [inhibitor, single point]
O=C(Nc1cccc(C(F)(F)F)c1)N1CCC(CN2CCCCCC2)CC1 |  |  | inconclusive: 20 µM [inhibitor, single point]
Cc1ccc(C(=O)NC[C@H]2C[C@@H]3CCN2C[C@@H]3c2cc(C3CCCCC3)nn2C)cc1 |  |  | inconclusive: 7.08 µM [inhibitor, partial curve, poor fit]
O=C(NC1C[C@H]2CC[C@@H](C1)N2C(=O)C1(c2ccccc2)CC1)c1ccc(F)cc1 (some centres undefined) |  |  | inconclusive: 20 µM [inhibitor, partial curve, poor fit]
O=C(Cn1cccc1-c1nc(-c2ccc3c(c2)OCO3)no1)N1CCc2ccccc21 |  |  | inconclusive: 17.8 µM [inhibitor, single point]
Cc1cc2nc3n(c(=O)c2n1CC(=O)Nc1ccc(Cl)cc1F)CCCC3 |  |  | inconclusive: 20 µM [inhibitor, single point]
CN1CC2(CCN(Cc3ccc(-c4ccc(Cl)cc4)o3)C2)OC1=O (centres undefined) | inactive: 1.62% |  | 
O=C(C[C@@H]1CCNC[C@@H]1Cc1cc(-c2ccc(F)cc2)on1)N1CCC(Cc2ccccc2)CC1 |  |  | inconclusive: 5.62 µM [inhibitor, partial curve, poor fit]
O=C(Cn1nc2n(c1=O)CCCCC2)NCc1ccc(F)cc1 | inactive: 27.4% |  | 
CCOc1ccccc1-c1noc(CSc2nnc(-c3ccccc3)n2-c2cccc(C)c2)n1 |  |  | inconclusive: 8.91 µM [inhibitor, partial curve, poor fit]
COc1cccc([S+](=O)([O-])N2CCC3(COc4ccccc4C(=O)N3)C2)c1 (centres undefined) |  |  | inconclusive: 0.398 µM [inhibitor, full curve]
COc1ccc(OC)c(C2c3c(-c4ccc(Br)cc4)n[nH]c3C(=O)N2c2ccc(Cl)cc2)c1 (centres undefined) |  |  | inconclusive: 10 µM [inhibitor, single point]
COc1ccc(C2=C(C(C)=O)Sc3nnc(-c4ccc(C)cc4)n3N2C(C)=O)cc1OC |  |  | active: 2.51 µM
Fc1ccc(-c2noc([C@@H]3Cc4nc[nH]c4CN3Cc3cccs3)n2)cc1Cl |  |  | active: 10 µM
COc1ccc2[nH]c(C[C@@H]3C[C@@H](C(C)C)[C@H](CNC4CCN(C(C)=O)CC4)C=C3C)nc2n1 |  | inactive | 
CCCS(=O)(=O)N1C[C@@H]2C[C@H](C1)c1c(-c3ccc(Cl)cc3)ccc(=O)n1C2 |  |  | inconclusive: 15.8 µM [inhibitor, single point]
CC(=O)NCCCC(=O)N1CCN(c2cccc(C=O)c2)C(=O)C1 | inactive: 6.48% |  | 
Cc1cc(=O)n(CC(=O)N2CCN(c3ccc(F)cc3)CC2)c(N2CCc3ccccc3C2)n1 |  | inactive | 
